Consider 54 compounds from ChEMBL document CHEMBL4888484, “Replenishing the malaria drug discovery pipeline: Screening and hit evaluation of the MMV Hit Generation Library 1 (HGL1) against asexual blood stage Plasmodium falciparum ,using a nano luciferase reporter read-out” (2022).

Out of some 150,000 compounds screened, about 540 (0.36%) showed an effect of 50% or more. The list shows a part of the results.

Usually % Inhibition stands for the change of the read-out against control, counted positive when it falls.

This test deals with Plasmodium falciparum. Description: Primary screen in NF54 nanoGlo assay, in single point, at 2uM, 72h; a lower Z score goes with more inhibition. In kind it is functional, Erythrocyte. The conditions noted are these: timepoint 72 hour.
With `CCNC(=O)COc1ccc(NC(=O)c2cc(S(=O)(=O)NCc3ccco3)ccc2C)cc1`, the “% Inhibition” value is on record as -12% and the Z score amounted to 1.3.
Regarding `COc1ccc(CNC(=O)N2CCC3C(CCCN3C)C2)cc1Cl` (stereo not drawn), the “% Inhibition” value amounted to 2% and the Z score is listed as -0.4.
With `Cc1cc(N2CCCCCC2)c(F)cc1C(=O)c1ccccc1`, the “% Inhibition” value worked out at 3% and the Z score is recorded as -0.4.
In the case of `COc1cncc(N(C)Cc2nccn2CC(F)(F)F)n1`, the “% Inhibition” value was determined as 3% and the Z score was -0.57.
In the case of `CN(Cc1n[nH]c(C(C)(C)C)n1)C[C@]1(O)CCc2ccccc21`, the “% Inhibition” value was -5% and the Z score was 0.93.
`CC1CCN(c2nc3c(c(N(C)C)n2)CN(C(=O)c2cccs2)CC3)CC1`: the “% Inhibition” value is recorded as -5% and the Z score was 0.59.
In the same order, the values of `Cc1cc(C(=O)N2C[C@H](C)Oc3ccc(Cl)cc32)ccc1N1CCOCC1` are 3% and -0.32.
The like results for `Cc1ocnc1C(=O)N1CCc2nc(N)nc(N3CC[C@H](O)C3)c2CC1` were, in that order, -11% and 1.99.
The like results for `O=C(c1ccc(Br)o1)N1CC(c2nc(C3CC3)no2)C1` were, in that order, -20% and 3.82.
Take `O=C1C[C@H](NC(=O)c2cc(C3CC3)on2)CN1`: the “% Inhibition” value was -8% and the Z score is recorded as 1.45.
Consider `CNC(=O)[C@@H]1C[C@H](Oc2ccccc2)CN1C1CCN(C(=O)CCc2c(C)nn(C)c2C)CC1`, for which the “% Inhibition” value worked out at 1% and the Z score is reported as -0.19.
In the same order, the values of `Cc1cc(N2CCS(=O)(=O)CC2)c2cc(Cl)cc(C)c2n1` are -16% and 1.87.
In the same order, the values of `OC[C@H]1CN2CCC[C@H]2CN1Cc1ccc2cc[nH]c2c1` are 0% and 0.03.
As for `Cn1cc(Br)c(CNC(=O)C2(C)CCOCC2)n1`, the “% Inhibition” value is 3% and the Z score is recorded as -0.4.
The like results for `Cc1ccc(C)c(S(=O)(=O)NCCn2c(-c3ccncc3)nc3ccccc32)c1` were, in that order, 4% and -0.75.
Turning to `Cc1nc(C(=O)NCc2ccncc2C(F)(F)F)c(C)o1`, the “% Inhibition” value is reported as -18% and the Z score turned out to be 2.02.
In the same order, the values of `COc1cccc(C(=O)N2CCN(C(=O)Cc3sc(C)nc3C)CC2)c1` are -2% and 0.34.
Consider `Cc1n[nH]c(N2CCN(Cc3cccc4c3OCCO4)CC2)n1`, for which the “% Inhibition” value is on record as -3% and the Z score stood at 0.36.
Take `CC[C@@]1(C)Oc2ccc(NCc3cc(C(N)=O)cs3)cc2O1`: the “% Inhibition” value is reported as -14% and the Z score came out at 1.9.
With `Cc1ccc(S(=O)(=O)N2CCCC(C(=O)N[C@@H]3CCCC[C@H]3NC(=O)c3ccccc3)C2)cc1` (stereo partly drawn), the “% Inhibition” value was -14% and the Z score is given as 1.69.
In the same order, the values of `O=C(NC1Cc2ccccc2C1)N1CC[C@H](N2CCOCC2)C1` are -9% and 1.17.
The like results for `CN(C)S(=O)(=O)c1ccc(NC(=O)NCC(F)(F)F)nc1` were, in that order, -9% and 1.41.
Turning to `CCNC(=O)N1CC[C@H](c2noc(C3CC3)n2)C1`, the “% Inhibition” value is listed as -5% and the Z score worked out at 0.65.
The like results for `Cc1ncoc1CNC(=O)[C@H]1C[C@@H]1c1ccccc1` were, in that order, -9% and 1.11.
For the compound `O=C(NCC(F)(F)F)N(Cc1ccc2c(c1)CCO2)C1CCCC1`, the “% Inhibition” value was determined as 1% and the Z score is listed as -0.12.
As for `CCC(C)(C)NS(=O)(=O)c1c(C)sc(C)c1-c1ccno1`, the “% Inhibition” value was -11% and the Z score is given as 1.88.
As for `O=C(NCCCNC(=O)c1cccnc1)c1cccnc1`, the “% Inhibition” value is -9% and the Z score was 1.79.
In the same order, the values of `CC1(CO)CCCC1NCC(O)C(F)(F)F` (stereo not drawn) are -1% and 0.1.
`Cc1ccc2[nH]cc(-c3cccc(-n4cnnc4)c3)c2c1`: the “% Inhibition” value came out at 0% and the Z score stood at 0.02.
Consider `Cn1nccc1C(=O)NCc1ccc2c(c1)CCN2C(=O)c1ccccc1`, for which the “% Inhibition” value is on record as -5% and the Z score was found to be 0.87.
The like results for `CCN1C(=O)CO[C@H](C(=O)N[C@@H](CO)COC)[C@H]1c1ccccc1` were, in that order, -2% and 0.34.
As to `COCc1csc(NC(=O)N2CC[C@H](C3CCCC3)C2)n1`, the “% Inhibition” value is recorded as 3% and the Z score is on record as -0.61.
In the case of `CC(C)[C@H](C)NC(=O)Cc1csc(-c2ccc3c(c2)OCCO3)n1`, the “% Inhibition” value is -3% and the Z score turned out to be 0.3.
Turning to `Cc1nc(C(C)C)sc1C(=O)N1C[C@@H]2CC[C@H]1CN(S(C)(=O)=O)C2`, the “% Inhibition” value was found to be 1% and the Z score was -0.24.
In the same order, the values of `COc1cc(CN2C(=O)[C@@H]3CCCN3C2=O)ncc1C` are 9% and -1.61.
As to `CCC(c1ccccc1)S(=O)(=O)NC(=O)[C@H]1CCCC[C@@H]1C(F)(F)F` (stereo partly drawn), the “% Inhibition” value was found to be 4% and the Z score is reported as -0.78.
The like results for `Cc1nc(-c2ccc(C)c(S(=O)(=O)NC3CCC(C)CC3)c2)no1` (stereo not drawn) were, in that order, 7% and -0.92.
The like results for `Cn1cc(C(F)F)c(CNC(=O)[C@]2(c3ccccc3)CCCO2)n1` were, in that order, 1% and -0.22.
The like results for `Cc1nncn1CCN1CCO[C@@H](CC(C)C)C1` were, in that order, -8% and 1.03.
`O=C(CN1C(=O)CCc2cc(S(=O)(=O)N3CCCC3)ccc21)NCc1ccc(Cl)cc1`: the “% Inhibition” value is -2% and the Z score was determined as 0.29.
The like results for `O=C(C[C@H]1CCCO1)Nc1ccc(OC2CCC2)c(F)c1` were, in that order, -3% and 0.38.
With `Cc1ccc(C(F)(F)F)cc1CN(C)CC(C)(C)CO`, the “% Inhibition” value was determined as 6% and the Z score is listed as -0.63.
On to `COc1cccc(Cc2nc(CCc3ccc4c(c3)CCO4)no2)n1`, for which the “% Inhibition” value was -11% and the Z score is recorded as 1.54.
As for `CC1=CCCC(C)C1CNCC1CCCO1` (stereo not drawn), the “% Inhibition” value was -9% and the Z score was 1.36.
In the same order, the values of `CCOC(=O)N1CCC(NC(=O)c2coc(NC(=O)c3ccco3)n2)CC1` are -4% and 0.56.
The like results for `CC(=O)Nc1cc(Br)ccc1CN1CCO[C@H](c2nc(C)n[nH]2)C1` were, in that order, 1% and -0.17.
Regarding `Cc1ccc(C(=O)C(=O)Nc2cc(C(C)(C)C)nn2[C@H]2CCS(=O)(=O)C2)cc1`, the “% Inhibition” value is listed as -23% and the Z score stood at 3.6.
The like results for `Fc1cccnc1O[C@H]1CCCN(c2nc(C3CC3)ns2)C1` were, in that order, 3% and -0.35.
`COc1ccc(C(=O)N2C[C@@H]3C[C@H](N(C)C)CN3C(=O)[C@@H]2CC(C)C)cn1`: the “% Inhibition” value was -6% and the Z score amounted to 0.79.
In the same order, the values of `Cc1cnc(CN2CC3(CCC2=O)CCN(Cc2cccc(O)c2)CC3)cn1` are -6% and 1.11.
The like results for `O=C(Nc1cccc2cccnc12)N1CCC[C@H](CO)C1` were, in that order, -6% and 1.19.
On to `Cc1cccc(C2CCCCN2C(=O)c2cnc(C(C)O)s2)c1C` (stereo not drawn), for which the “% Inhibition” value was -9% and the Z score is listed as 0.79.
In the same order, the values of `Cc1nn(-c2ccc3nncn3n2)c(C)c1CCC(=O)N1CCCCCC1` are -12% and 1.55.
In the same order, the values of `c1ccc2c(c1)N=C(NCc1ccc3c(c1)OCO3)C1(CCCCCC1)N2` are 12% and -1.51.
